Data reported in PMC4336329 (PLoS ONE, 2015).
The whole screen tested about 310,000 compounds, of which about 2,200 (0.71%) showed an effect of 50% or more. Effects have a minus sign here. This is one part of the list.

Biological target: human ether-à-go-go-related gene (hERG) potassium channel (human, UniProt Q12809)
Assay: primary screen, population patch clamp on CHO cells stably expressing hERG

Sequence of human ether-à-go-go-related gene (hERG) potassium channel (Q12809 whole entry, looked up): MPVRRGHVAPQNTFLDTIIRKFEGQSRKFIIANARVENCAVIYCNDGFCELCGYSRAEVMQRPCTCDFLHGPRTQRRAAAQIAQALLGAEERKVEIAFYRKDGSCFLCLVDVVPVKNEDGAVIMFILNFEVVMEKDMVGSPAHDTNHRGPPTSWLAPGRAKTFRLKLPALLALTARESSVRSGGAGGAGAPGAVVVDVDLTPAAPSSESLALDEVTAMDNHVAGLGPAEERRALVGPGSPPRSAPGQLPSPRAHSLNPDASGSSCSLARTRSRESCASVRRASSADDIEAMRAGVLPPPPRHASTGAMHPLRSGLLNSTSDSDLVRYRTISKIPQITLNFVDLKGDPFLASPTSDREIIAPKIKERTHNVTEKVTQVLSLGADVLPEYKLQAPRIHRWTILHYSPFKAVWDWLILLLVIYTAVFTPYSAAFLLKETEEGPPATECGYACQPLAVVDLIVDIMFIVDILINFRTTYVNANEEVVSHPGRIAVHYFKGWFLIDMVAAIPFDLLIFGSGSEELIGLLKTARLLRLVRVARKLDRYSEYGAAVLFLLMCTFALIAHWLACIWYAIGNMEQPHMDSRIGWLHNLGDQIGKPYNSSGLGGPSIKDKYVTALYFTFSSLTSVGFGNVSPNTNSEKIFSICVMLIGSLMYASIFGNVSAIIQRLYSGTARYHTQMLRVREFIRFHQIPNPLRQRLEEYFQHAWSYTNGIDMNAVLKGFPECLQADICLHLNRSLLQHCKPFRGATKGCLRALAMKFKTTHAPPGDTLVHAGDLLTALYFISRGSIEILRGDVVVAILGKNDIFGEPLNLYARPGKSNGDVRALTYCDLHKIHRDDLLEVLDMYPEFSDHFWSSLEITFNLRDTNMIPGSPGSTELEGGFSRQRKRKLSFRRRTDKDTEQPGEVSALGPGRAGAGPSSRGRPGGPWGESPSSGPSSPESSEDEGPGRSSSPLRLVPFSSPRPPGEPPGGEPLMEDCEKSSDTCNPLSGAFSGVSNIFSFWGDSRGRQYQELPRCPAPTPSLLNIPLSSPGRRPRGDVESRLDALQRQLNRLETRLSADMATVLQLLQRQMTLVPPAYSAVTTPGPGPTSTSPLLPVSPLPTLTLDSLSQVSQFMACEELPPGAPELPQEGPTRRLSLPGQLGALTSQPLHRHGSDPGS

First: CCC(CC)C(=O)c1c[nH]c(C(=O)NCCOC)c1
Second: COCCNC(=O)COc1cc(=O)n(C)c2ccccc12
The “hERG current change (%, negative = inhibition) at 1uM” value of the first is higher: 17.8% for the first, 0.268% for the second.

Going from `O=[N+]([O-])c1cc(-c2nc3nc4ccccc4nc3n2CCc2ccccc2)cc([N+](=O)[O-])c1` to `Cn1c(/C(C#N)=C(\O)c2ccc([N+](=O)[O-])cc2)nc2ccccc21`, the “hERG current change (%, negative = inhibition) at 1uM” value rises from 9.16% to 17%.

First: COC(=O)C1=C(c2cc3ccccc3s2)C[C@@H]2CC[C@H]1N2C(=O)NCCCOC(C)C
Second: COC(=O)c1c(S(=O)(=O)NCc2ccccc2)sc(C(=O)O)c1C
The “hERG current change (%, negative = inhibition) at 1uM” value of the first is lower: 2.84% for the first, 10.6% for the second.

Compared with `O=Cc1c(NCc2ccco2)nc2ccccn2c1=O`, `COc1cccc(C(=O)NCCS(=O)(=O)NCc2ccco2)c1` is lower in “hERG current change (%, negative = inhibition) at 1uM” value: 7.85% for the first, 6.15% for the second.

First: CC/C(=N/Nc1cccc(Cl)c1)c1cnnc(SC)n1
Second: CCN(CC)C(=O)CSc1nnc(-c2c[nH]c3ccccc23)o1
The “hERG current change (%, negative = inhibition) at 1uM” value of the first is higher: 16.1% for the first, 10.3% for the second.

Compared with `Cc1nn(Cc2ccccc2Cl)c2sc(C(=O)Nc3ccccc3N3CCOCC3)cc12`, `Cc1ccc2c(CN3CCCc4ccccc43)cc(=O)oc2c1C` is higher in “hERG current change (%, negative = inhibition) at 1uM” value: 9.02% for the first, 16% for the second.

First: CSc1ccccc1NC(=O)C1C2CCC(C2)C1C(=O)O (stereo not shown)
Second: CC(=O)Nc1ccccc1O
The “hERG current change (%, negative = inhibition) at 1uM” value of the first is lower: 13.3% for the first, 17.5% for the second.

First: CCc1ccc(NC(=O)CCc2nc3ccccc3[nH]2)cc1
Second: COc1ccc(/C=N/NC(=O)CCc2ccccc2)cc1O
The “hERG current change (%, negative = inhibition) at 1uM” value of the first is lower: 2.63% for the first, 6.15% for the second.

First: COc1cc(CN2CCN(c3ccccc3C)CC2)cc([N+](=O)[O-])c1O
Second: Cc1ccccc1CN1CCN(C(C)C(=O)NNC(=O)c2ccc(F)cc2)CC1 (stereo not shown)
The “hERG current change (%, negative = inhibition) at 1uM” value of the first is lower: 7.17% for the first, 9.27% for the second.

Going from `Cc1cc(C)cc(NCc2cc(=O)oc3cc(C)c(O)cc23)c1` to `COc1cc2c(cc1OC)C(C(=O)Nc1cc(C)c(OC)c(C)c1)CC(=O)N2` (stereo not shown), the “hERG current change (%, negative = inhibition) at 1uM” value rises from 10.3% to 11.9%.

Compared with `O=S(=O)(Nc1nc2ccccc2nc1N1CCN(CCO)CC1)c1cc(F)ccc1F`, `N#Cc1ccc(C(=O)CN2CCN(c3ccccc3)CC2)cc1` is lower in “hERG current change (%, negative = inhibition) at 1uM” value: 5.69% for the first, 0.529% for the second.

First: CCN=C1Sc2nc3ccc(OCC)cc3cc2CN1CCOC.Cl
Second: COCCN(Cc1nc2ccccc2c(=O)[nH]1)C(=O)COc1c(C)cc(Cl)cc1C
The “hERG current change (%, negative = inhibition) at 1uM” value of the first is lower: 4.24% for the first, 16.3% for the second.

First: COc1ccc(N2CCN(S(C)(=O)=O)CC2)cc1
Second: COc1ccc(C2CC2C(C)=O)cc1 (stereo not shown)
The “hERG current change (%, negative = inhibition) at 1uM” value of the first is higher: 14.2% for the first, 13.4% for the second.

First: Cl.O=C(CN1CCCC1)NCC12CC3CC(CC(C3)C1)C2
Second: CCn1c2ccccc2c2cc(NC(=O)CN3CCCC3)ccc21
The “hERG current change (%, negative = inhibition) at 1uM” value of the first is lower: 10.1% for the first, 11.6% for the second.

First: Cc1cc(=O)n(-c2ccc(C(=O)O)cc2)[nH]1
Second: CC(=O)Nc1ccc(N2C(=O)CSC2c2ccc([N+](=O)[O-])cc2)cc1 (stereo not shown)
The “hERG current change (%, negative = inhibition) at 1uM” value of the first is higher: 17.4% for the first, 7.42% for the second.

First: N#Cc1cccc(NC(=O)COC(=O)c2ccc3c(=O)n4c(nc3c2)CCC4)c1
Second: COc1ccc(OCCC(=O)OCC(=O)Nc2cccc(Br)c2)cc1
The “hERG current change (%, negative = inhibition) at 1uM” value of the first is higher: 5.47% for the first, 0.704% for the second.

Going from `CC(=O)N1[C@H](Cc2ccccc2)C=C[C@]1(C)C(=O)NCCN1CCOCC1` to `COc1ccccc1NC(=S)N(CCCN1CCOCC1)Cc1cccs1`, the “hERG current change (%, negative = inhibition) at 1uM” value falls from 13.1% to -2.25%.

First: COc1ccc(C(=O)Oc2ccc(F)cc2C(=O)/C=C/c2ccc(OC)c(OC)c2)cc1
Second: COc1cc(OC)c(OC)cc1CNCCc1ccc(F)cc1.O=C(O)C(=O)O
The “hERG current change (%, negative = inhibition) at 1uM” value of the first is lower: 0.79% for the first, 4.3% for the second.

First: COc1cccc(OC)c1C(=O)NCC12CC3CC(C1)CC(CNC(=O)c1c(OC)cccc1OC)(C3)C2
Second: COc1ccc(N2C(=O)CCC(C(=O)N3CCCCCC3)C2c2ccc(OC)c(OC)c2)cc1 (stereo not shown)
The “hERG current change (%, negative = inhibition) at 1uM” value of the first is higher: 11.7% for the first, 8% for the second.

First: O=C(NCC1CCN(C(=O)c2cccc([N+](=O)[O-])c2)CC1)c1cccc([N+](=O)[O-])c1
Second: O=C(COC(=O)C1CCN(C(=O)c2ccc(Cl)cc2)CC1)NC1CCS(=O)(=O)C1 (stereo not shown)
The “hERG current change (%, negative = inhibition) at 1uM” value of the first is lower: -5.98% for the first, 15% for the second.

Going from `CCSc1nnc(-c2cc(Br)ccc2N=Cc2c(C)[nH]n(-c3ccccc3)c2=O)c(=O)[nH]1` to `Cc1cccc(/N=C2/NC(=O)C(Cc3ccccc3)S2)n1` (stereo not shown), the “hERG current change (%, negative = inhibition) at 1uM” value falls from 6.56% to 5.91%.

Compared with `COc1ccc(CNS(=O)(=O)c2cc(-c3cc(C)no3)ccc2C)cc1OC`, `COc1ccc(NS(=O)(=O)c2ccc(C)c(C(=O)N(C)Cc3ccc(OC)cc3OC)c2)cc1` is higher in “hERG current change (%, negative = inhibition) at 1uM” value: 4.36% for the first, 12.6% for the second.

Compared with `Cc1cccc(C)c1NC(=O)c1cccc2c1-c1ccccc1C2=O`, `COC(=O)c1ccc(C2NC(=S)N(c3ccccc3)C(C)=C2C(=O)Nc2ccccc2OC)cc1` (stereo not shown) is higher in “hERG current change (%, negative = inhibition) at 1uM” value: 3.44% for the first, 11.3% for the second.

Going from `C/C(=N\NC(=O)c1ccc(O)cc1)c1ccc2c(c1)Nc1ccccc1S2` to `O=C(Cc1ccccc1)NNC(=O)Nc1ccc(Cl)c(Cl)c1`, the “hERG current change (%, negative = inhibition) at 1uM” value rises from 4.97% to 16.7%.

Compared with `COC(=O)/C(=C/N(C)C)C(=O)N1CCN(c2ccc(Cl)c(Cl)c2)CC1`, `CCOC(=O)N1CCN(C(=O)COc2ccc(Cl)c(C)c2)CC1` is higher in “hERG current change (%, negative = inhibition) at 1uM” value: 5.92% for the first, 6.49% for the second.

First: N#C/C(=C/N1CCOCC1)c1ccccc1
Second: CN1CCN(c2oc(/C=C/c3ccccc3)nc2C#N)CC1
The “hERG current change (%, negative = inhibition) at 1uM” value of the first is lower: -10.6% for the first, -3.19% for the second.

First: COc1cccc(CNC(=S)Nc2cc(OC)ccc2OC)c1
Second: COc1cc(OC)c(NC(=S)Nc2cc(Cl)cc(Cl)c2)cc1Cl
The “hERG current change (%, negative = inhibition) at 1uM” value of the first is higher: 16.3% for the first, 11.4% for the second.

First: CCOCCCNC(=O)C1c2ccccc2Oc2ccccc21
Second: CC(CN1CCCCC1)OC(=O)C1c2ccccc2Oc2ccccc21.Cl (stereo not shown)
The “hERG current change (%, negative = inhibition) at 1uM” value of the first is higher: 13.5% for the first, 7.27% for the second.

Going from `CC1CCCCC1NC(=O)Cn1cnc2ccccc2c1=O` (stereo not shown) to `CC(=O)c1cc(-c2ccccc2)n(CC(=O)NC2CCCCC2)c1C`, the “hERG current change (%, negative = inhibition) at 1uM” value falls from 10.5% to 5.1%.

Going from `O=c1c2[nH]c3ccccc3c2ncn1CCN1CCCCC1` to `CCN(CC)C(=O)C1CCCN(Cc2ccccc2C(F)(F)F)C1` (stereo not shown), the “hERG current change (%, negative = inhibition) at 1uM” value rises from -21.4% to -2.75%.

First: CCN(CC(=O)Nc1c(F)cccc1F)C(=O)c1cn2ccccc2n1
Second: CNC(=O)NC(=O)CSc1nnc(-c2ccco2)n1Cc1ccccc1
The “hERG current change (%, negative = inhibition) at 1uM” value of the first is higher: 22.5% for the first, 0.532% for the second.

Compared with `N#C/C(=C/c1cn[nH]c1-c1cccc(Br)c1)C(=O)O`, `O=C(N/N=C/C(Br)=C/c1ccccc1)c1cc(-c2ccco2)[nH]n1` is lower in “hERG current change (%, negative = inhibition) at 1uM” value: 11.4% for the first, 9.32% for the second.

First: CCOC(=O)c1ccccc1NC(=O)c1cc2sccc2n1C
Second: COc1ccc([N+](=O)[O-])cc1NC(=O)c1csc(C)c1
The “hERG current change (%, negative = inhibition) at 1uM” value of the first is higher: 9.57% for the first, 6.51% for the second.

Going from `Cc1ccc(N2C(=O)C(O)(C(F)(F)F)C3=C2CC(C)(C)CC3=O)cc1C` (stereo not shown) to `CCOC(=O)C1=C(C)Nc2nc(SCC)[nH]c(=O)c2C1c1ccncc1` (stereo not shown), the “hERG current change (%, negative = inhibition) at 1uM” value falls from 13.5% to 6.82%.

First: O=C(NNC1=NCCC1)c1ccc(Br)cc1
Second: O=C(Nc1ccc2nsnc2c1)C1CC1
The “hERG current change (%, negative = inhibition) at 1uM” value of the first is higher: 6.31% for the first, 5.31% for the second.

Going from `O=C(COC(=O)c1cc(-c2ccccc2Cl)nc2ccccc12)Nc1ncc(C(F)(F)F)cc1Cl` to `CC(OC(=O)[C@H](C)NC(=O)c1ccccc1Cl)C(=O)NCc1ccc2c(c1)OCO2` (stereo partly shown), the “hERG current change (%, negative = inhibition) at 1uM” value falls from 0.4% to -3.86%.

Going from `O=C(N/N=C/c1ccncc1)c1cccs1` to `Nc1cc(-c2ccncc2)c[nH]c1=O`, the “hERG current change (%, negative = inhibition) at 1uM” value falls from 9.87% to 9.48%.

Going from `NNC(=O)c1nc(-c2cccc(-n3cccc3)c2)no1` to `N#Cc1cc2c(nc1SCc1ccccc1)CCCC2=O`, the “hERG current change (%, negative = inhibition) at 1uM” value falls from 10.7% to 4.84%.

Compared with `Cc1cc(NC(=O)Nc2ccc(F)cc2F)n(C)n1`, `CCCCCCn1cc(C(=O)OCC)c(=O)c2cc(F)c(F)cc21` is lower in “hERG current change (%, negative = inhibition) at 1uM” value: 6.74% for the first, -21% for the second.

First: CC/C(C)=N\N=C\c1c(O)n(CC)c2cc(C3=NNC(=O)CC3)ccc12
Second: COc1ccc(CCN2CC(C(=O)N(C)Cc3ccccc3OC)CCC2=O)cc1 (stereo not shown)
The “hERG current change (%, negative = inhibition) at 1uM” value of the first is lower: -1.63% for the first, 26.7% for the second.

First: CN1C(=O)SC(Nc2ccccc2)C1=O (stereo not shown)
Second: CCOP(=O)(c1ccccc1)C(O)c1ccc([N+](=O)[O-])cc1 (stereo not shown)
The “hERG current change (%, negative = inhibition) at 1uM” value of the first is lower: 10.6% for the first, 14.9% for the second.

First: CCN(CC)S(=O)(=O)c1ccc(OC)c(NS(=O)(=O)c2ccc(F)cc2)c1
Second: CCCOc1ccc(/C=N/NC(=O)CSCc2ccc([N+](=O)[O-])cc2)cc1OCC
The “hERG current change (%, negative = inhibition) at 1uM” value of the first is lower: 3.23% for the first, 4.57% for the second.

Compared with `O=C(COc1ccccc1)N1CCN(C/C=C/c2ccccc2)CC1`, `CC(C)NC(=O)NC(=O)COC(=O)CCOc1ccccc1` is higher in “hERG current change (%, negative = inhibition) at 1uM” value: -30.3% for the first, 10.5% for the second.

Compared with `CCCNC(=O)NC(=O)CSc1nnc(C)n1N`, `O=C(CCCOc1ccc(Cl)cc1Cl)Nc1nnc(C2CC2)s1` is lower in “hERG current change (%, negative = inhibition) at 1uM” value: 14.1% for the first, 12.3% for the second.

First: Cc1ccc2nc3sc(C(=O)Nc4c(C)[nH]c(=O)[nH]c4=O)c(N)c3cc2c1
Second: COc1ccc(-c2[nH]ncc2CN(C)Cc2nonc2C)c(OC)c1
The “hERG current change (%, negative = inhibition) at 1uM” value of the first is lower: 11.6% for the first, 21.9% for the second.

For `Cc1cccc(-n2nc(CC#N)c(C#N)c2N)c1`, the “hERG current change (%, negative = inhibition) at 1uM” value was 16.3%.
